These are yes or no findings as the source states them, for the method shown. In cells and extracts the contact can be indirect. Some binding calls cover weakened binding; strength is not graded here. For part of these data: Sequences can lack the tags named with a protein. Each block holds one molecule with its values, some of them ahead of it.
Assays:
[1] = target: wild-type myc tagged Pak1 (UniProt Q13153); assay: co-IP; HEK293T cells co-transfected with GFP-tagged GEFs and myc-Pak1, with or without activated Rac (RacQL); lysates precipitated with anti-myc, blotted with anti-GFP
[2] = target: T1, AU1-tagged full length P115RhoGEF (UniProt Q92888); assay: co-IP; HEK293T cells co-transfected with P115RhoGEF and myc-Pak1, with or without activated Rac (RacV12); lysates precipitated with anti-AU1, blotted with anti-Pak1
T1 sequence: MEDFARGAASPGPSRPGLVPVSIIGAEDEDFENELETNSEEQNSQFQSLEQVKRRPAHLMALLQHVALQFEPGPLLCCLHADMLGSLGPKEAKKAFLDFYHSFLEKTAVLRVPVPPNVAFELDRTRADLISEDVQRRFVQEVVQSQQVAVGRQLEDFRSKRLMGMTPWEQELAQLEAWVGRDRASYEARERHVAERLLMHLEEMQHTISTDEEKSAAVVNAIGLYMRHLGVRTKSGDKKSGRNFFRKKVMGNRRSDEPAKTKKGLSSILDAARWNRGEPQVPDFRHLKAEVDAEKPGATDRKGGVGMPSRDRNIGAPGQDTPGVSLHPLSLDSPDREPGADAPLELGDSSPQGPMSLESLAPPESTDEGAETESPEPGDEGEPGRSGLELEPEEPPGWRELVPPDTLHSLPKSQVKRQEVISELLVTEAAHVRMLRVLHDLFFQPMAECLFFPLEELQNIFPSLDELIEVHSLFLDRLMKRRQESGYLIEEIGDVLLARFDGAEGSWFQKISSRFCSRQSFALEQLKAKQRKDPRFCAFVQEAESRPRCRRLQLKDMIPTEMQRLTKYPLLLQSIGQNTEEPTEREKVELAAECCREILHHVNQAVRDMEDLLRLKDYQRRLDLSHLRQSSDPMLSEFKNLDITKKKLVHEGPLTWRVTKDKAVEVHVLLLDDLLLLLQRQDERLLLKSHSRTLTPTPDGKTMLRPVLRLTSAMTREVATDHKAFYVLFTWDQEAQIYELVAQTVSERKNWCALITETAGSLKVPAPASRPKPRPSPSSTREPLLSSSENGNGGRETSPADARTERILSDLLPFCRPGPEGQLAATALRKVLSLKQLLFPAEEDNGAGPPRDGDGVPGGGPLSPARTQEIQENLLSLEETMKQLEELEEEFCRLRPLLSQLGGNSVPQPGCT

The chains behind the UniProt entries cited, without tags or fusion partners.
UniProt Q13153: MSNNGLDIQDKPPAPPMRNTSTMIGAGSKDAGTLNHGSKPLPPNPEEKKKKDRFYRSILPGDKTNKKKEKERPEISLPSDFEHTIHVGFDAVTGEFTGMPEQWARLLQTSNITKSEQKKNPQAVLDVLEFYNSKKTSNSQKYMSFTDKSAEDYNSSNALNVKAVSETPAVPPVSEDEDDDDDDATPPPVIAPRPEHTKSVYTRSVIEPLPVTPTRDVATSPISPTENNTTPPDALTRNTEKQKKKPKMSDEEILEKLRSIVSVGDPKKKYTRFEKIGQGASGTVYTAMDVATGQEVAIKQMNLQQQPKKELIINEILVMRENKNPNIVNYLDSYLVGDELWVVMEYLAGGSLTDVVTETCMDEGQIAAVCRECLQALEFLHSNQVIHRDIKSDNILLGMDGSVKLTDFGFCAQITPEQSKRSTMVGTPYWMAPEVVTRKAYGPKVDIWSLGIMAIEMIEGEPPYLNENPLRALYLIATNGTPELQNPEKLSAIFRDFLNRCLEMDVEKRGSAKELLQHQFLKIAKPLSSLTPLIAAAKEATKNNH
UniProt O15085: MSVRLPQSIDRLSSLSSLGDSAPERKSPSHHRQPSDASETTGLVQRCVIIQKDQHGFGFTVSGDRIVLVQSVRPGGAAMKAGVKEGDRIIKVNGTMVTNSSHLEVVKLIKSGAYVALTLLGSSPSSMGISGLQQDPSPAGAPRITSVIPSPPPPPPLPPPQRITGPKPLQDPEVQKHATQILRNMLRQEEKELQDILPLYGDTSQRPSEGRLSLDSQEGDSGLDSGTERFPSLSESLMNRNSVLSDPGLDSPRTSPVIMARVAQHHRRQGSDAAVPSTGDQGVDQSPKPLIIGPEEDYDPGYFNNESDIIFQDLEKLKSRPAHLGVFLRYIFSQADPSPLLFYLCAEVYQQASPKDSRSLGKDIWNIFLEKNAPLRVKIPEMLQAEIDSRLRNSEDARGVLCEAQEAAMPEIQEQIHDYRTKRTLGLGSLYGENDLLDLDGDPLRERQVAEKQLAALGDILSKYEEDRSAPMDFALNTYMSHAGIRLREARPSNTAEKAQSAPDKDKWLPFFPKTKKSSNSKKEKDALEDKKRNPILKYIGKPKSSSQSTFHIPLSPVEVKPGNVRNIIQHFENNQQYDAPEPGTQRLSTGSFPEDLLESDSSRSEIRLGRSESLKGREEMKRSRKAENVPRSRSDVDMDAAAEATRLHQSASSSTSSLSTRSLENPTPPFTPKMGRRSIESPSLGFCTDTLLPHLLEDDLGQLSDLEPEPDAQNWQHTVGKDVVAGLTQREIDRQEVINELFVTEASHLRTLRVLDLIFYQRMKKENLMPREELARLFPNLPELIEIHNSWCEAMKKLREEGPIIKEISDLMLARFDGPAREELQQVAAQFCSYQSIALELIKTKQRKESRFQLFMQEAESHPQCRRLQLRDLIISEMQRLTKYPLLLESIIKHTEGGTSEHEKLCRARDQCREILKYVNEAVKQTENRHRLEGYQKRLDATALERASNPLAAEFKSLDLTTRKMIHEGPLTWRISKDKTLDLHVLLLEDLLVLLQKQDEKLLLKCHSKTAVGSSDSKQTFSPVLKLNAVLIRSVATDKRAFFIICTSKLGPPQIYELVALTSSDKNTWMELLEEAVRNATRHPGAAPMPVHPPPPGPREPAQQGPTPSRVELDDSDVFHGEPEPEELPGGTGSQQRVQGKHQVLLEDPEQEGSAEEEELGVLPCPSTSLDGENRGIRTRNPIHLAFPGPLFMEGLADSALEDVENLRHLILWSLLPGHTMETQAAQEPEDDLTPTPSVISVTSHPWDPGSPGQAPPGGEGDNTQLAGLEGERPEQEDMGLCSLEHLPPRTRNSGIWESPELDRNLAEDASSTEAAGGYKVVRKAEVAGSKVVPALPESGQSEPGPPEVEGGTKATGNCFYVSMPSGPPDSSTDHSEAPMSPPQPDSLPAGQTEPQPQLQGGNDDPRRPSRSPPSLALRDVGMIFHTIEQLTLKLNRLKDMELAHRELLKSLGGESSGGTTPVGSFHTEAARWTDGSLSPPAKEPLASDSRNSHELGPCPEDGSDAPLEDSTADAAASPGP
UniProt Q9NZN5: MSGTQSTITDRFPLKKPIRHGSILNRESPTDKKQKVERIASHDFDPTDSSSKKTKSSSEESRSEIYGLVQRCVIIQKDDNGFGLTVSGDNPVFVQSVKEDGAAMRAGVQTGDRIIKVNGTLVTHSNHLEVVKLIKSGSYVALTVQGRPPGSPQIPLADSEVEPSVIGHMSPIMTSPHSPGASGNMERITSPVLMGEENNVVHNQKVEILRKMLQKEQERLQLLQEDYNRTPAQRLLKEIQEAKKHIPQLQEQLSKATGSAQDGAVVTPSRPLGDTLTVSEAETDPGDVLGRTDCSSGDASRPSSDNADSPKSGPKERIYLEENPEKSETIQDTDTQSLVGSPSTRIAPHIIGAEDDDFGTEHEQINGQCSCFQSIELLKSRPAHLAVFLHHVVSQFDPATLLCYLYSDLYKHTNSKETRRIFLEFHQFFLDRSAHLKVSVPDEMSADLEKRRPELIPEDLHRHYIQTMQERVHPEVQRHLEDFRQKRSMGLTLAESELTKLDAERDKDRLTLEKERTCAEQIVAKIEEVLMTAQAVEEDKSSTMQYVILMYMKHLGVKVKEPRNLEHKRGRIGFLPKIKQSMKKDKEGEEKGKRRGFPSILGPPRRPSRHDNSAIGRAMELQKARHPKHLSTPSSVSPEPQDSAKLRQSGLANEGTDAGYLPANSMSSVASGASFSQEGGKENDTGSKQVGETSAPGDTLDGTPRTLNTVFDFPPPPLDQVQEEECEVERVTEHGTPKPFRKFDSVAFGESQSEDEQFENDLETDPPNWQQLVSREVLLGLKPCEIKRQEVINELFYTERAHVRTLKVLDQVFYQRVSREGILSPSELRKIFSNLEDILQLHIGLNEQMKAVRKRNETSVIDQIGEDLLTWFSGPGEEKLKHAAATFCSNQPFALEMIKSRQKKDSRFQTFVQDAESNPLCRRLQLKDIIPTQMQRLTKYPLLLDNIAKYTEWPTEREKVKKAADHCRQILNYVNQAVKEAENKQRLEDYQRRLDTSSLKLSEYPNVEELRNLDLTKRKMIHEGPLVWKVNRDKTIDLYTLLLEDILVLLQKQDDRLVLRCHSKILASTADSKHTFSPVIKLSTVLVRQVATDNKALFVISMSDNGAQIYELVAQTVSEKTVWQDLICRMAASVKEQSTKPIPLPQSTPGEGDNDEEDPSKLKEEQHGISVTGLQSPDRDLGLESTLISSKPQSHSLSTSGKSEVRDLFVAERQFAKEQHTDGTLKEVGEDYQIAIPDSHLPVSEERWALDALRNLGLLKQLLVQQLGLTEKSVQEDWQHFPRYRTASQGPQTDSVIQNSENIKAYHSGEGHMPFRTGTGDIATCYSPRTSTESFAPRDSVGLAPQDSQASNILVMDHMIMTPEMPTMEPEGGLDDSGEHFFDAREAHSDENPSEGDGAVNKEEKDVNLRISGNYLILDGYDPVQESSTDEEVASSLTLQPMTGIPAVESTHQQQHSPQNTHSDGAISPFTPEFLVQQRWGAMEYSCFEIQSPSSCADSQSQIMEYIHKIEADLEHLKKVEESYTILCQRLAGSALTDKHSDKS

[3] = target: wild-type myc tagged Pak1 (UniProt Q13153); assay: co-IP; HEK293T cells co-transfected with AU1-tagged P115RhoGEF deletion constructs or DH-PH domains and myc-Pak1, with or without activated Rac (RacQL); lysates precipitated with anti-myc, blotted with anti-AU1

Molecule: GFP-PDZ-RhoGEF (from UniProt O15085 1-1522)
binding [1]: no binding

Molecule: wild-type myc tagged Pak1 (from UniProt Q13153 1-545) (enzyme)
binding [2]: binds

B3: AU1-tagged DH-PH domain of P115RhoGEF (domain or fragment, UniProt Q92888 351-771)
chain: PQGPMSLESLAPPESTDEGAETESPEPGDEGEPGRSGLELEPEEPPGWRELVPPDTLHSLPKSQVKRQEVISELLVTEAAHVRMLRVLHDLFFQPMAECLFFPLEELQNIFPSLDELIEVHSLFLDRLMKRRQESGYLIEEIGDVLLARFDGAEGSWFQKISSRFCSRQSFALEQLKAKQRKDPRFCAFVQEAESRPRCRRLQLKDMIPTEMQRLTKYPLLLQSIGQNTEEPTEREKVELAAECCREILHHVNQAVRDMEDLLRLKDYQRRLDLSHLRQSSDPMLSEFKNLDITKKKLVHEGPLTWRVTKDKAVEVHVLLLDDLLLLLQRQDERLLLKSHSRTLTPTPDGKTMLRPVLRLTSAMTREVATDHKAFYVLFTWDQEAQIYELVAQTVSERKNWCALITETAGSLKVPAPASRP
binding [3]: binds

Continued, values first:

binding [1]: no binding
Molecule: GFP-LARG (from UniProt Q9NZN5 1-1544)

binding [3]: binds
B1: P115RhoGEF ΔN (AU1-tagged) (domain or fragment, UniProt Q92888 352-912)
chain: QGPMSLESLAPPESTDEGAETESPEPGDEGEPGRSGLELEPEEPPGWRELVPPDTLHSLPKSQVKRQEVISELLVTEAAHVRMLRVLHDLFFQPMAECLFFPLEELQNIFPSLDELIEVHSLFLDRLMKRRQESGYLIEEIGDVLLARFDGAEGSWFQKISSRFCSRQSFALEQLKAKQRKDPRFCAFVQEAESRPRCRRLQLKDMIPTEMQRLTKYPLLLQSIGQNTEEPTEREKVELAAECCREILHHVNQAVRDMEDLLRLKDYQRRLDLSHLRQSSDPMLSEFKNLDITKKKLVHEGPLTWRVTKDKAVEVHVLLLDDLLLLLQRQDERLLLKSHSRTLTPTPDGKTMLRPVLRLTSAMTREVATDHKAFYVLFTWDQEAQIYELVAQTVSERKNWCALITETAGSLKVPAPASRPKPRPSPSSTREPLLSSSENGNGGRETSPADARTERILSDLLPFCRPGPEGQLAATALRKVLSLKQLLFPAEEDNGAGPPRDGDGVPGGGPLSPARTQEIQENLLSLEETMKQLEELEEEFCRLRPLLSQLGGNSVPQPGCT

binding [3]: binds
B2: P115RhoGEF with deletion of the C-terminus (AU1-tagged) (domain or fragment, UniProt Q92888 1-771)
chain: MEDFARGAASPGPSRPGLVPVSIIGAEDEDFENELETNSEEQNSQFQSLEQVKRRPAHLMALLQHVALQFEPGPLLCCLHADMLGSLGPKEAKKAFLDFYHSFLEKTAVLRVPVPPNVAFELDRTRADLISEDVQRRFVQEVVQSQQVAVGRQLEDFRSKRLMGMTPWEQELAQLEAWVGRDRASYEARERHVAERLLMHLEEMQHTISTDEEKSAAVVNAIGLYMRHLGVRTKSGDKKSGRNFFRKKVMGNRRSDEPAKTKKGLSSILDAARWNRGEPQVPDFRHLKAEVDAEKPGATDRKGGVGMPSRDRNIGAPGQDTPGVSLHPLSLDSPDREPGADAPLELGDSSPQGPMSLESLAPPESTDEGAETESPEPGDEGEPGRSGLELEPEEPPGWRELVPPDTLHSLPKSQVKRQEVISELLVTEAAHVRMLRVLHDLFFQPMAECLFFPLEELQNIFPSLDELIEVHSLFLDRLMKRRQESGYLIEEIGDVLLARFDGAEGSWFQKISSRFCSRQSFALEQLKAKQRKDPRFCAFVQEAESRPRCRRLQLKDMIPTEMQRLTKYPLLLQSIGQNTEEPTEREKVELAAECCREILHHVNQAVRDMEDLLRLKDYQRRLDLSHLRQSSDPMLSEFKNLDITKKKLVHEGPLTWRVTKDKAVEVHVLLLDDLLLLLQRQDERLLLKSHSRTLTPTPDGKTMLRPVLRLTSAMTREVATDHKAFYVLFTWDQEAQIYELVAQTVSERKNWCALITETAGSLKVPAPASRP
